This is one part of the list. Most values come without repeats; read them as rough.
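Note: cells treated in 1,536-well plates, then fixed and DAPI-stained, with nuclei counted from automated high-throughput microscope images.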

The test system of this assay is WM451Lu. Nature of the assay: cell count relative to DMSO control; melanoma cells; higher = more viable cells. Particulars: library dose: standard library concentration; 72 h.
As to `CCN(CC)CCNC(=O)c1c(C)[nH]c(/C=C2\C(=O)Nc3ccc(F)cc32)c1C` [sunitinib] + CC1(C)NC(=O)N(c2ccc([N+](=O)[O-])c(C(F)(F)F)c2)C1=O [nilutamide] (first compound 2 µM, partner dose 5 µM), the cell count is 58.6%.
As for `Cn1cnc2c(F)c(Nc3ccc(Br)cc3Cl)c(C(=O)NOCCO)cc21` [selumetinib] + CO[C@@H]1[C@H](N(C)C(=O)c2ccccc2)C[C@H]2O[C@]1(C)n1c3ccccc3c3c4c(c5c6ccccc6n2c5c31)C(=O)NC4 [Midostaurin] (first compound 0.075 µM, partner dose 0.4 µM), the figure is 84.3%; as for `COc1cc([C@@H]2c3cc4c(cc3[C@@H](O[C@@H]3O[C@@H]5CO[C@@H](C)O[C@H]5[C@H](O)[C@H]3O)[C@H]3COC(=O)[C@H]23)OCO4)cc(OC)c1O` [etoposide] + Cc1cc(N2CCOCC2)cc2[nH]c(-c3c(NC[C@@H](O)c4cccc(Cl)c4)cc[nH]c3=O)nc12 [BMS536924] (first compound 0.1 µM, partner dose 1 µM), 101%; as for `Cn1cnc2c(F)c(Nc3ccc(Br)cc3Cl)c(C(=O)NOCCO)cc21` [selumetinib] + C=CCn1c(=O)c2cnc(Nc3ccc(N4CCN(C)CC4)cc3)nc2n1-c1cccc(C(C)(C)O)n1 [MK1775] (first compound 0.075 µM, partner dose 0.1 µM), 44.2%.
As for `COc1cc([C@@H]2c3cc4c(cc3[C@@H](O[C@@H]3O[C@@H]5CO[C@@H](C)O[C@H]5[C@H](O)[C@H]3O)[C@H]3COC(=O)[C@H]23)OCO4)cc(OC)c1O` [etoposide] + CO[C@@H]1[C@H](N(C)C(=O)c2ccccc2)C[C@H]2O[C@]1(C)n1c3ccccc3c3c4c(c5c6ccccc6n2c5c31)C(=O)NC4 [Midostaurin] (first compound 0.1 µM, partner dose 0.4 µM), the figure is 76.7%; as for `CCN(CC)CCNC(=O)c1c(C)[nH]c(/C=C2\C(=O)Nc3ccc(F)cc32)c1C` [sunitinib] + C[C@@H]1CCN(C(=O)CC#N)C[C@@H]1N(C)c1ncnc2[nH]ccc12 [CP690550] (first compound 2 µM, partner dose 5 µM), 72.6%.
As for `COc1cc([C@@H]2c3cc4c(cc3[C@@H](O[C@@H]3O[C@@H]5CO[C@@H](C)O[C@H]5[C@H](O)[C@H]3O)[C@H]3COC(=O)[C@H]23)OCO4)cc(OC)c1O` [etoposide] + Nc1ccn([C@@H]2O[C@H](CO)[C@@H](O)C2(F)F)c(=O)n1 [gemcitabine] (first compound 0.1 µM, partner dose 0.002 µM), the figure is 42.3%.
For `COc1cc([C@@H]2c3cc4c(cc3[C@@H](O[C@@H]3O[C@@H]5CO[C@@H](C)O[C@H]5[C@H](O)[C@H]3O)[C@H]3COC(=O)[C@H]23)OCO4)cc(OC)c1O` [etoposide] + C=CCn1c(=O)c2cnc(Nc3ccc(N4CCN(C)CC4)cc3)nc2n1-c1cccc(C(C)(C)O)n1 [MK1775] (first compound 0.1 µM, partner dose 0.1 µM), the cell count is 102%.
Consider `C[C@]1(O)C[C@@H](c2nc(-c3ccc4ccc(-c5ccccc5)nc4c3)c3c(N)nccn32)C1` + Cc1cc(N2CCOCC2)cc2[nH]c(-c3c(NC[C@@H](O)c4cccc(Cl)c4)cc[nH]c3=O)nc12 [BMS536924] (first compound 2 µM, partner dose 1 µM), for which the cell count was 98.5%.
As for `Cn1cnc2c(F)c(Nc3ccc(Br)cc3Cl)c(C(=O)NOCCO)cc21` [selumetinib] + O=C(CCCCCCC(=O)Nc1ccccc1)NO [vorinostat] (first compound 0.075 µM, partner dose 0.4 µM), the figure is 66.3%; as for `Cn1cnc2c(F)c(Nc3ccc(Br)cc3Cl)c(C(=O)NOCCO)cc21` [selumetinib] + CC(C)(C)c1cnc(CSc2cnc(NC(=O)C3CCNCC3)s2)o1 [SNS-032] (first compound 0.075 µM, partner dose 0.05 µM), 44.6%.
Compound `COc1cc([C@@H]2c3cc4c(cc3[C@@H](O[C@@H]3O[C@@H]5CO[C@@H](C)O[C@H]5[C@H](O)[C@H]3O)[C@H]3COC(=O)[C@H]23)OCO4)cc(OC)c1O` [etoposide] + Cc1ccc(NC(=O)c2cccc(N(C)C)c2)cc1NC(=O)c1ccc(O)cc1 [ZM336372] (first compound 0.1 µM, partner dose 10 µM) showed a cell count of 104%.

The values are drawn from the supplement of paper PMC4604168 (melanoma cell lines).
